Data as given in the supplement of paper PMC4967469.

Legend:
Assay in all cases: Viability of human cancer cell lines after 72 h of drug (GDSC screen)
[1] = compound: CCC(=O)N1CCN(c2ccc(-n3c(=O)ccc4cnc5ccc(-c6cnc7ccccc7c6)cc5c43)cc2C(F)(F)F)CC1 [JW-7-52-1]; conditions: top dose 1.2 µM; top dose inferred
Experimental: (§1)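 Human cancer cell lines in 384-well plates, medium with 10% serum, drug for 72 h over a 256-fold dose range (nine 2-fold or five 4-fold steps up to the top dose). Adherent lines were fixed and stained with the nucleic acid dye Syto60, suspension lines read with resazurin; signal relative to control wells, capped at 0 and 100%. One two-parameter sigmoid per drug and line, fitted in a mixed model over all curves with the slope shared within a line.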

[2] = compound: CCCC[C@@H](C=O)NC(=O)[C@H](CC(C)C)NC(=O)[C@H](CC(C)C)NC(=O)OCc1ccccc1 [Z-LLNle-CHO]; conditions: top dose 2.56 µM; top dose inferred
Experimental: as §1

[3] = compound: CN1CCc2c(c3ccccc3n2Cc2ccc(C(=O)NO)cc2)C1 [Tubastatin A]; conditions: top dose 20 µM
Experimental: as §1

[4] = compound: CO[C@H]1C[C@@H]2CC[C@@H](C)[C@@](O)(O2)C(=O)C(=O)N2CCCC[C@H]2C(=O)O[C@H]([C@H](C)C[C@@H]2CC[C@@H](O)[C@H](OC)C2)CC(=O)[C@H](C)/C=C(\C)[C@@H](O)[C@@H](OC)C(=O)[C@H](C)C[C@H](C)/C=C/C=C/C=C/1C [Rapamycin]; conditions: top dose 0.1 µM; top dose inferred
Experimental: as §1

[5] = compound: COc1cc2c(Oc3ccc(NC(=O)C4(C(=O)Nc5ccc(F)cc5)CC4)cc3F)ccnc2cc1OCCCN1CCOCC1 [XL-880]; conditions: top dose 5.12 µM; top dose inferred
Experimental: as §1

[6] = compound: Cn1nnc2c(C(N)=O)ncn2c1=O [Temozolomide]; conditions: top dose 30 µM
Experimental: as §1

[7] = compound: O=C(NOCC1CC1)c1ccc(F)c(F)c1Nc1ccc(I)cc1Cl [CI-1040]; conditions: top dose 10 µM; top dose inferred
Experimental: as §1

[8] = compound: Oc1ccc2ccccc2c1SSc1c(O)ccc2ccccc12 [IPA-3]; conditions: top dose 32 µM; top dose inferred
Experimental: as §1

Row | Cell Line | AUC [1] | IC50 [1] | AUC [2] | IC50 [2] | AUC [3] | IC50 [3] | AUC [4] | IC50 [4] | AUC [5] | IC50 [5] | AUC [6] | IC50 [6] | AUC [7] | IC50 [7] | AUC [8] | IC50 [8]
1 | OCI-M1 (acute myeloid leukaemia, suspension) | 0.616 | 144 nM | 0.678 | 439 nM | 0.754 | 5350 nM | 0.964 | > 100 nM | 0.733 | 1210 nM | 0.972 | > 30000 nM | 0.898 | 7240 nM | 0.99 | > 32000 nM
2 | KNS-81-FD (glioma, adherent) | 0.569 | 124 nM | 0.681 | 618 nM | 0.967 | > 20000 nM | 0.823 | 89.4 nM | 0.714 | 1630 nM | 0.962 | > 30000 nM | 0.887 | > 10000 nM | 0.977 | > 32000 nM
3 | CHP-126 (neuroblastoma, suspension) | 0.963 | > 1200 nM | 0.987 | > 2560 nM | 0.928 | > 20000 nM | 0.972 | > 100 nM | 0.809 | 2770 nM | 0.889 | > 30000 nM | 0.889 | > 10000 nM | 0.681 | 6520 nM
4 | OPM-2 (myeloma, suspension) | 0.222 | 14.1 nM | 0.722 | 590 nM | 0.753 | 5610 nM | 0.41 | 3.72 nM | 0.651 | 771 nM | 0.992 | > 30000 nM | 0.982 | > 10000 nM | 0.866 | 20200 nM
5 | ML-2 (acute myeloid leukaemia, suspension) | 0.565 | 111 nM | 0.679 | 474 nM | 0.791 | 7920 nM | 0.923 | > 100 nM | 0.609 | 614 nM | 0.979 | > 30000 nM | 0.579 | 1000 nM | 0.849 | 20100 nM
6 | ME-1 (acute myeloid leukaemia, suspension) | 0.817 | 731 nM | 0.817 | 1560 nM | 0.764 | 7790 nM | 0.936 | > 100 nM | 0.86 | 4800 nM | 0.984 | > 30000 nM | 0.611 | 1290 nM | 0.966 | > 32000 nM
7 | KM-H2 (Hodgkin lymphoma, suspension) | 0.858 | 752 nM | 0.777 | 871 nM | 0.986 | > 20000 nM | 0.877 | 74.6 nM | 0.733 | 1300 nM | 0.986 | > 30000 nM | 0.967 | > 10000 nM | 0.867 | 21900 nM

Lines with a small IC50 respond at low doses; a limit (>, <) means that the fit lies beyond the doses tested. For AUC the same curve is integrated over the 256-fold range of doses and scaled to a fraction: 1 means no effect, lower means more sensitive. For some of these results: Any top dose called inferred comes from the curve model; the source does not state it.
